The campaign covered roughly 52,000 compounds. About 1,700 (3.3%) were called active. No stated cut-off is given here; in the data, active means survival mostly below about 52% (no sharp cut-off); inactive means mostly above about 56%. Some of the results follow.
What follows are molecules tested on Wild type (assay: growth inhibition of S. aureus wild type versus tarO mutant, primary screen, teichoic acid synthesis inhibitors, RN4220, OD600 (AID 463173)). Settings: S. aureus RN4220 wild type/DeltatarO growth, OD600, 18 h, hits give low values, screened at 18.75 µg/mL (by protocol).

Compound | survival
Cc1ccc(-c2nc3c(c(SCC(=O)Nc4ccccc4Cl)n2)Cc2c(CO)cnc(C)c2O3)cc1 | inactive: 87%
CCOC(=O)c1c(S(=O)(=O)NCC(=O)NCc2cccc(C)c2)c(C)n(C)c1C | inactive: 71%
O=C(Nc1ccc2oc(-c3ccc4ccccc4c3)nc2c1)c1ccccc1F | inactive: 88%
O=C(OCC1CCCO1)c1ccc2c(c1)N(Cc1ccccc1Cl)C(=O)c1ccccc1S2(=O)=O (centres undefined) | inactive: 126%
CCOc1ccc(-n2c(=O)c3c4c(sc3n(CC(=O)Nc3cccc(C(F)(F)F)c3)c2=O)CCCCC4)cc1 | inactive: 83%
COc1ccccc1NC(=O)C(Cc1ccccc1)NS(=O)(=O)c1ccc2c(c1)c(=O)n(C)c(=O)n2C (centres undefined) | inactive: 116%
O=C(COc1ccccc1)Nc1nnc(S(=O)(=O)N2CCCC2)s1 | inactive: 78%
CN(Cc1ccccc1)c1ncnc2onc(-c3ccc(F)cc3)c12 | inactive: 81%
Cc1cc(Nc2cccc(C(F)(F)F)c2)nc2ccc(NC(=O)c3ccc(=O)[nH]c3)cc12 | inactive: 32%
O=C(NCc1ccc(F)cc1)c1c(O)nc2ccccn2c1=O | inactive: 55%
COc1ccc(NC(=O)c2ccc(C3SCC(=O)N3Cc3ccco3)cc2)cc1 (centres undefined) | inactive: 110%
CCCCOc1cccc(NC(=O)CSc2nnc(C)s2)c1 | inactive: 70%
COc1ccc(NC(=O)COc2ccc(S(=O)(=O)NC3CCCCC3)cc2)cc1OC | inactive: 74%
CCCC(=O)OCc1cnc(C)c2oc(=O)c(C(=O)Nc3ccccc3)cc12 | inactive: 85%
COc1ccc(NC(=O)C2CCC(CNS(=O)(=O)c3ccc(Br)s3)CC2)cc1OC (centres undefined) | inactive: 83%
COc1ccc(OC)c(NC(=O)CSc2nc3ccccc3nc2N2CCCCC2)c1 | active: -10%
Cc1ccc2c(=O)cc(CSCC(=O)Nc3nnc(C)s3)[nH]c2c1 | inactive: 153%
O=C(Nc1cccc(Cl)c1)c1cnc[nH]1 | inactive: 147%
COc1ccc(Br)cc1C1Sc2ccccc2NC2=C1C(=O)c1ccccc12 (centres undefined) | inactive: 41%
CC(NC(=O)CCNS(=O)(=O)c1cccc2nsnc12)c1ccccc1 (centres undefined) | inactive: 68%
COc1ccc(Cn2nnnc2CN(Cc2ccc(C)cc2)Cc2cc3cc4c(cc3[nH]c2=O)OCO4)cc1 | inactive: 101%
Cc1cc(C)n(C(C)CC(=O)NCc2ccc(N(C)C)cc2)n1 (centres undefined) | inactive: 70%
COC(=O)c1cc2sccc2n1Cc1nc(-c2ccc(Cl)cc2)oc1C | inactive: 82%

Compound | survival
CCc1ccccc1NC(=O)c1ccc2c(c1)N(Cc1cc(C)ccc1C)C(=O)c1ccccc1S2(=O)=O | inactive: 93%
N#CC(C#N)=Cc1cn(-c2ccccc2)nc1C12CC3CC(CC(C3)C1)C2 | inactive: 106%
CCC(=O)N/N=C/c1ccc(-c2ccc(Cl)cc2)o1 | inactive: 106%
CCOCCCn1c(SCC(=O)Nc2ccc(C)cc2)nc2ccccc2c1=O | inactive: 83%
COc1cccc(C(c2c(O)cc(C)n(Cc3ccco3)c2=O)N2CCN(c3ccccc3)CC2)c1 (centres undefined) | inactive: 54%
O=C(CSc1nccn1Cc1ccc(Cl)cc1)Nc1ccc2c(c1)OCCO2 | inactive: 69%
COc1cc(Cl)c(C)cc1NC(=O)Cn1ncc2c([nH]c3ccccc32)c1=O | inactive: 55%
COc1ccccc1NC(=O)C1=C(C)Nc2nc(SCc3ccccc3C)nn2C1CC(C)C (centres undefined) | inactive: 91%
COc1ccc(CNC(=O)C(C)n2ccc3cc(S(=O)(=O)N4CCCC4)ccc32)cc1OC (centres undefined) | inactive: 80%
Cc1cc(C)c(NC(=O)C2CCN(c3nnc(C)c4c(C)n(-c5ccccc5)nc34)CC2)c(C)c1 | inactive: 64%
COc1ccc(-n2ncc(C(=O)N3CCc4ccccc4C3)c2C2CCN(C(=O)OC(C)(C)C)CC2)cc1 | inactive: 63%
Cc1cc(C)cc(NS(=O)(=O)c2ccc3c(c2)CCCN3C(=O)C2CCC2)c1 | inactive: 64%
CCc1ccc2oc(C(=O)Nc3nonc3CC)c(C)c2c1 | inactive: 86%
O=C(Nc1ccc(Br)cc1F)c1ncoc1-c1ccco1 | inactive: 89%
Cc1oc2ncn(C)c(=O)c2c1C(=O)NCCCN1CCCC(C)C1 (centres undefined) | inactive: 87%
CCOc1cc(-c2nc(-c3ccc(Br)cc3)no2)cc(OCC)c1OCC | inactive: 102%
O=C(COc1ccccc1)N(Cc1cccnc1)c1nc2ccc(F)cc2s1 | inactive: 89%
COc1ccc(-c2cc(C(F)(F)F)n3nc(C(=O)NCC45CC6CC(CC(C6)C4)C5)cc3n2)cc1 | inactive: 62%
COc1ccc(CNC(=O)CN(c2cc(C)cc(C)c2)S(=O)(=O)c2c(C)[nH]c(=O)[nH]c2=O)cc1 | inactive: 82%
COCCCNC(=O)c1ccc2c(=O)n(Cc3ccc(OC)cc3)c(=O)[nH]c2c1 | inactive: 72%
O=C(CN1C(=O)COc2ccc(S(=O)(=O)N3CCOCC3)cc21)N1CCN(c2ccccc2)CC1 | inactive: 125%
Cc1nc(-c2ccc(C)c(S(=O)(=O)N3CCC(C(=O)NCc4ccc(Cl)cc4)CC3)c2)no1 | inactive: 134%
COc1ccc(CCNC(=O)C2CCCN(c3nc4c(C)cc(C)cc4s3)C2)cc1OC (centres undefined) | inactive: 79%

Compound | survival
Cc1ccc(S(=O)(=O)C(CNC(=O)c2ccccc2F)c2cccs2)cc1 (centres undefined) | inactive: 73%
Cc1cccc(CSc2nc3c(c(=O)[nH]2)C(c2cccc(O)c2)CC(=O)N3)c1 (centres undefined) | inactive: 107%
CCOC(=O)c1c(NC(=O)c2cc(C(C)C)on2)sc(C)c1C | inactive: 87%
COc1ccc(C2=C(C)C(=O)N(Cc3ccc(C(=O)NCc4ccc(C)cc4)cc3)S2(=O)=O)cc1 | inactive: 89%
Cc1cccc(CN2CCN(CC(=O)NCc3ccc(Cl)cc3)C2=O)c1 | inactive: 83%
Cn1nc(C(=O)NCc2ccc(Cl)cc2)c2c1-c1ccccc1SC2 | inactive: 82%
CCCCC(CC)CNC(=O)c1ccc2c(=O)n(Cc3ccc(OC)cc3)c(=O)[nH]c2c1 (centres undefined) | inactive: 97%
COc1ccc(CNC(=O)Cc2c(C)c3c(cc(C)c4c(C)c(C)oc43)oc2=O)cc1 | inactive: 102%
CCSc1ncc(Cl)c(C(=O)Nc2nc3ccc(OC)cc3s2)n1 | inactive: 103%
Cc1ccc(N(Cc2cccs2)C(=O)c2ccc(Br)o2)cc1 | inactive: 80%
Cc1cc(=O)n2nc(N3CCC(C(=O)Nc4ccc(C)c(Cl)c4)CC3)sc2n1 | inactive: 94%
O=C(NC(NC(=O)c1ccco1)c1ccc(Br)cc1)c1ccco1 | inactive: 109%
CCc1nonc1NC(=O)c1oc2ccccc2c1C | inactive: 92%
CC1(C)CC(=O)C=C(Nc2ccccc2F)C1 | inactive: 100%
COc1ccc(CNC(=O)CCS(=O)(=O)c2ccc3c(c2)oc(=O)n3C)cc1 | inactive: 70%
CCN(CC)C(=O)CSc1nnc(COc2ccc(C)cc2)n1N | inactive: 114%
CCOc1cc(C2c3c(-c4ccc(Br)cc4)n[nH]c3C(=O)N2c2ccc(Cl)cc2)ccc1O (centres undefined) | inactive: 42%
O=C1C2c3ccccc3CCN2C(=O)CN1CCc1ccccc1 (centres undefined) | inactive: 121%
CCOC(=O)N1CCC(NC(=O)c2ccc3c(c2)N(Cc2ccc(F)cc2)C(=O)c2ccccc2S3(=O)=O)CC1 | inactive: 139%
Cc1ccc(CNC(=O)c2ccc3c(O)c(S(=O)(=O)c4ccccc4)c(=O)[nH]c3c2)cc1 | inactive: 83%
CCOc1ccc(NC(=O)C(NS(=O)(=O)c2ccc3c(c2)CCN3C(C)=O)C(C)C)cc1 (centres undefined) | inactive: 124%
CCOc1ccccc1NC(=O)c1nnn(CC(=O)Nc2ccc(OC)c(OC)c2)c1N | inactive: 81%
O=C(CSc1nc2ccccc2nc1Cc1ccc(Cl)cc1)NCCc1ccccc1 | inactive: 69%

Compound | survival
COc1ccc(/C=C2\CCOC2=O)cc1 | inactive: 109%
COc1ccc(OC)c(C(C)NC(=O)Cn2c(=O)cc(C)c3c(C)nn(-c4ccc(C)cc4)c32)c1 (centres undefined) | inactive: 82%
COc1ccc(CNC(=O)c2nn(-c3ccccc3C)nc2CO)cc1 | inactive: 89%
Cc1ccc(C)c(N2CCN(Cc3csc(C)c3C)CC2)c1 | inactive: 82%
COc1ccccc1-c1cc(C(=O)N2CCCCC2C)no1 (centres undefined) | inactive: 27%
CCCCC(=O)Nc1ccc2nc(SCC(=O)N3CCCC3)sc2c1 | inactive: 88%
CCc1ccc(Nc2ncnc3c2cnn3-c2cc(Cl)ccc2C)cc1 | inactive: 90%
COc1cccc(CNC(=O)C(NS(=O)(=O)c2ccc3c(c2)CCN3C(C)=O)C(C)C)c1 (centres undefined) | inactive: 84%
CCOc1ccccc1CC1C(=O)Nc2ccc(Br)cc21 (centres undefined) | inactive: 73%
Cc1cccc(-c2nc(Cn3c(=O)cc(-c4ccccc4)c4c(C)nn(C)c43)c(C)o2)c1 | active: -6%
CCn1cc(C(=O)OCC(=O)Nc2ccc(F)cc2F)c(=O)c2ccc(C)nc21 | inactive: 144%
COC(F)(C(=O)NC12CC3CC(CC(C3)C1)C2)C(F)(F)F (centres undefined) | inactive: 121%
COC(=O)c1ccc(Cn2c(=O)cc(C(F)(F)F)c3c(C)nn(C)c32)cc1 | inactive: 69%
O=C(Cn1c2ncccc2c(=O)n1-c1ccccc1)Nc1ccc(F)c(F)c1 | inactive: 153%
O=C(NCc1ccc(Cl)cc1)C1CCCN(c2nc3ccccc3n3cccc23)C1 (centres undefined) | inactive: 105%
CCOc1ccc(S(=O)(=O)N(CC(=O)NCCSc2ccccc2)c2ccccc2)cc1 | inactive: 94%
CCN(c1ccc(OC)cc1)S(=O)(=O)c1ccc2[nH]c(=O)ccc2c1 | inactive: 72%
Cc1ccccc1Cn1c(=O)n(CCc2ccccc2)c(=O)c2ccccc21 | active: 4%
Cc1cc(C)nc(N2CCCC(C)C2)n1 (centres undefined) | inactive: 99%
Cc1cc(N2CCCCC2)nc2ccc(NC(=O)/C=C/c3ccccc3Cl)cc12 | inactive: 73%
